Assay results from PubChem BioAssay AID540267 (National Center for Advancing Translational Sciences (NCATS), 2011).
Where “and” joins values, the source holds several entries; their conditions need not be identical. Identical values can stand only once. The whole screen tested about 340,000 compounds, of which about 530 (0.16%) were called active. The shares of active, inactive and inconclusive entries below differ from those in the screen. Rule as the data show it: active = activity change below about -80%; inconclusive = between about -30% and that limit; inactive = weaker than that.

experiment: Small Molecules that selectively kill Giardia lamblia: qHTS; settings: Giardia lamblia trophozoite viability; at 7.66 µM; active compounds read low;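 also: parasites exposed to compound for two days anaerobically before the ATP read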
Procedure, shortened: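 ATP-content bioluminescence gauges trophozoite survival. Cells (100/well) receive compound and incubate anaerobically for 48 hrs at 37 deg C; detection reagent follows for 15-30 min at room temperature.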
% is scaled to controls: 0 for no effect and ±100 for the full control effect.

| SMILES | activity change |
| --- | --- |
| O=C(Nc1ccc(N2CCOCC2)cc1)c1cnsn1 | inconclusive: -59.3% [inhibitor] |
| Cc1cc2oc(=O)c(CC(=O)NCCCO)c(C)c2c2occ(C(C)(C)C)c12 | inactive: -12.5% |
| COCCn1c(C)cc(C(=O)CSc2nnc(C)s2)c1C | inconclusive: -44.2% [inhibitor] |
| CCOC(=O)/C(=C\c1ccc([N+](=O)[O-])o1)NC(=O)c1ccccc1 | inconclusive: -72.6% [inhibitor] |
| COc1ccc(C(=O)C(C)OC(=O)CNC(=O)c2ccco2)cc1 (stereo not drawn) | inconclusive: -49% [inhibitor] |
| O=C(CN1C(=O)C2CC=CCC2C1=O)Nc1nc(-c2ccc(F)c(F)c2)cs1 (stereo not drawn) | inactive: -0.208% |
| CCOc1[nH]c(/N=C/c2ccccc2)c(C#N)c1C#N | inconclusive: -34.4% [inhibitor] |
| COc1ccc(Nc2nc(=O)[nH]nc2C)cc1 | inconclusive: -31.8% [inhibitor] |
| O=C(CC1C(=O)NCCN1Cc1ccc(F)cc1)NCCN1CCCc2ccccc21 (stereo not drawn) | inconclusive: -34.7% [inhibitor] |
| O=[N+]([O-])c1cc(/C=N/N2CCCCC2)ccc1Cl | inactive: -12% |
| O=C(N/N=C/C=C/c1ccc(Br)cc1)C(O)c1ccccc1 (stereo not drawn) | inconclusive: -34% [inhibitor] |
| C=CCNC(=S)N/N=C/c1ccc(OCc2ccccc2Cl)cc1 | inactive: 13.1% |
| Cc1cccc(CN2C(=O)N/C(=C/c3cc(C)n(-c4ccccn4)c3C)C2=O)c1 | inconclusive: -38.3% [inhibitor] |
| Fc1ccc2cc(-c3cccnc3)ncc2c1 | inconclusive: -32.1% [inhibitor] |
| O=C(Nc1nc(-c2ccc(S(=O)(=O)N3CCOCC3)cc2)cs1)c1ccccc1 | inactive: -8.43% and inactive: -18.6% |
| Cc1ccc2c(c1)sc(=NC(=O)c1cccs1)n2C | inconclusive: -59.8% [inhibitor] |
| COc1ccc(N2CCN(C(CNC(=O)C(C)(C)C)c3ccco3)CC2)cc1 (stereo not drawn) | inconclusive: -31.5% [inhibitor] |
| CC(C)CC(OC(=O)CC1Sc2ccccc2NC1=O)C(=O)NC1CCCC1 (stereo not drawn) | inactive: -6.44% |
| COc1ccc(C(=O)C2CCCN(C(=O)c3cc4nc(C)cc(C)n4n3)C2)cc1F (stereo not drawn) | inconclusive: -30.1% [inhibitor] |
| COc1ccc(CCCc2nnc(SCC(=O)Nc3nccs3)n2C)cc1C | inconclusive: -35% [inhibitor] |
| O=C(NCc1ccc2c(c1)OCO2)c1nc(S(=O)(=O)Cc2ccccc2)ncc1Cl | inactive: 2.08% |

| SMILES | activity change |
| --- | --- |
| O=C(Nc1ccc(F)cc1)c1oc2ccccc2c1NC(=O)C1CCCC1 | inactive: -2.63% |
| CC1CCN(C(=O)Cn2cc(C(=O)C3CC3)c3ccccc32)CC1 | inconclusive: -31.9% [inhibitor] |
| NC(=O)c1c(NC(=O)c2ccc([N+](=O)[O-])o2)sc2c1CCCC2 | active: -91.3% |
| CCC(NC(=O)c1cc(COc2ccc(C)nc2)on1)c1ccc(C)cc1 (stereo not drawn) | inactive: 25.2% |
| CC(C)(C)c1nnc(NC(=O)c2ccc(Cl)nc2)s1 | inactive: -11% |
| COc1cc(Cl)cc(/C=C/c2ccc3cccc(O)c3n2)c1OC | inactive: -5.87% |
| O=C(NCc1ccccc1Cl)NC(=O)c1csc([N+](=O)[O-])c1 | inconclusive: -68.5% [inhibitor] |
| COc1ccccc1C(=O)Nc1nc2ccccc2s1 | inconclusive: -76.7% [inhibitor] |
| CCn1nc(NS(=O)(=O)c2ccccc2)c2cc3ccccc3nc21 | inconclusive: -32.2% [inhibitor] |
| Cc1cc2ccc3ccccc3c2cc1CN(C)C | inactive: 3.09% |
| Cc1ccc(C(=O)/C=C/Nc2ccccn2)cc1 | inconclusive: -31.9% [inhibitor] |
| CC1CCc2nc(NC(=O)CCSc3ccccc3)sc2C1 (stereo not drawn) | inactive: 18.7% |
| Cc1cc(=O)[nH]c(SCC(=O)Nc2nc3ccccc3s2)n1 | inconclusive: -33.6% [inhibitor] |
| CC(=O)C1=C(O)C(=O)N(c2ccccn2)C1c1ccc(Cl)cc1 (stereo not drawn) | inconclusive: -30.4% [inhibitor] |
| COc1ccc([C@@H]2CC=C(C(=O)O)CN2S(=O)(=O)c2ccc(Cl)cc2)cc1 | inconclusive: -39.9% [inhibitor] |
| Cc1cc(C(F)(F)F)n2ncc(C(=O)O)c2n1 | inconclusive: -33.1% [inhibitor] |
| CCN(CC)c1ccc(NC(=S)NC(=O)Cc2ccccc2)cc1 | inactive: 1.21% |
| COc1ccccc1-c1c(C(F)(F)F)oc2cc(OCC(=O)Nc3ccccc3C(F)(F)F)ccc2c1=O | inactive: 3.01% |
| CCc1nnc(NC(=O)CN2CCN(c3cccc(OC)c3)CC2)s1 | inconclusive: -32.8% [inhibitor] |
| CC1CCN(c2ccc([N+](=O)[O-])cc2C(=O)NCC2CCCO2)CC1 (stereo not drawn) | inactive: 7.95% |
| COc1ccc(NC(=O)C(Cc2ccccc2)n2cccc2)c(OC)c1 (stereo not drawn) | inactive: 0.597% |

| SMILES | activity change |
| --- | --- |
| O=C(NN=C1CCCC1)c1ccc(O)cc1O | inactive: -0.833% |
| CCOC(=O)CN1CC23C=CC(O2)C(C(=O)Nc2ccc4c(c2)OCO4)C3C1=O (stereo not drawn) | inconclusive: -38% [inhibitor] |
| Cn1c(=O)c(/C=C/c2ccccc2)nc2ccccc21 | inconclusive: -30.8% [inhibitor] |
| COC(=O)c1cc(S(=O)(=O)NCCc2ccc(SC)cc2)c[nH]1 | inconclusive: -34.8% [inhibitor] |
| Cc1cccc(-n2c(-c3csc(C)c3)n[nH]c2=S)c1 | inactive: -7.03% |
| CN(C)c1ccc(/C=N/Nc2nncc3ccccc23)cc1 | inconclusive: -54.4% [inhibitor] |
| COc1ccccc1C(=O)C1CCCN(C(=O)c2cnn(C(C)C)c2)C1 (stereo not drawn) | inconclusive: -30.7% [inhibitor] |
| CCOc1ccccc1-n1c(N)c(C(N)=O)sc1=S | inconclusive: -34.1% [inhibitor] |
| Cc1cc(C(=O)N2CCCC(N3CCN(Cc4ccc5c(c4)OCO5)CC3)C2)n[nH]1 (stereo not drawn) | inconclusive: -30.4% [inhibitor] |
| COCCN(CCOC)c1ncnc2c1cnn2-c1ccccc1 | inconclusive: -38.4% [inhibitor] |
| Clc1ccc2nc(-c3ccc4c(c3)OCO4)cn2c1 | inconclusive: -43.9% [inhibitor] |
| COc1cccc(NC(=O)C(C)C)c1 | inactive: 4.46% |
| COC(=O)c1ccc(OC)c(OC2CCCC2)c1 | inconclusive: -31.6% [inhibitor] |
| Nc1nc(N)nc(COc2ccccc2)n1 | inactive: -28.2% |
| CCc1nnc(NC(=O)Nc2ccc(Cl)cc2)s1 | inactive: -14.2% |
| O=C(Nc1ccc(OCC(=O)N2CCOCC2)cc1)c1ccccc1F | inconclusive: -55.5% [inhibitor] |
| Cn1cc(CNCCCn2ncc3ccccc32)c(-c2ccccc2F)n1 | inactive: 4% |
| CCC1=NN2C(=N)/C(=C\c3cccn3-c3ccc(C)c(C)c3)C(=O)N=C2S1 | inconclusive: -33.7% [inhibitor] |
| COc1cc(OC)cc(OC(=O)c2cccc(S(=O)(=O)N3CCN(C)CC3)c2)c1 | inconclusive: -30.9% [inhibitor] |
| CCC(NC(=O)CCc1c(C)c2cc3c(-c4ccccc4)coc3cc2oc1=O)C(=O)O (stereo not drawn) | inconclusive: -30.9% [inhibitor] |
| CCSC1=C(C#N)C(c2cccs2)C(C(=O)OC)=C(C)N1 (stereo not drawn) | inactive: -5.02% |

| SMILES | activity change |
| --- | --- |
| O=C(CNc1cccc2ccccc12)N/N=C/c1ccc([N+](=O)[O-])o1 | active: -96.1% |
| Cc1cccc(-n2nc([N+](=O)[O-])c(=NCc3cccnc3)n2O)c1 | active: -87.5% |
| CC(C)c1ccc(N=c2c([N+](=O)[O-])nn(-c3ccc4c(c3)OCCO4)n2O)cc1 | inconclusive: -72.7% [inhibitor] |
| c1ccc2nc(-c3nc4ccccc4o3)ccc2c1 | inconclusive: -33.4% [inhibitor] |
| CNCC(=O)N1CCN(c2ncc(C(F)(F)F)cc2Cl)CC1 | inconclusive: -33.8% [inhibitor] |
| O=C(N/N=C/c1ccc([N+](=O)[O-])s1)c1ccccc1Br | active: -95.9% |
| COc1ccc(CNCCS(=O)(=O)NCc2ccc(OC)cc2)cc1 | inconclusive: -41.5% [inhibitor] |
| CN1C(=O)/C(=C/c2ccc(OC(=O)c3ccco3)cc2)SC1=S | inactive: -13.5% |
| O=C1c2ccccc2C(=O)C1(CO)c1ccc(OC(F)F)cc1 | inconclusive: -65.3% [inhibitor] |
| COc1cccc(C(=O)OCn2nnc3ccccc3c2=O)c1OC | inconclusive: -32.9% [inhibitor] |
| O=C(CSc1ccccn1)Nc1nonc1[N+](=O)[O-] | inactive: -11.6% |
| CCCC[C@@H]1C=C(C(=O)O)[C@H](c2ccc(Cl)cc2)N1S(=O)(=O)c1ccc(C)cc1 | inconclusive: -32% [inhibitor] |
| COc1ccc(NC(=O)c2cn(C)c(=O)c3cc(OC)c(OC)cc23)cc1OC | inactive: 4.37% |
| CNCC(=O)O | inconclusive: -37.3% [inhibitor] |
| NNc1nc(-c2ccccc2Cl)c2cc(Br)ccc2n1 | inconclusive: -32.8% [inhibitor] |
| CCOC(=O)c1c(C)c(C(=O)NC2CCCCCC2)c(C)n1C | inactive: 6.86% |
| COc1ccc(NC(=O)c2[nH]c(C)c(C(C)=O)c2C)cc1 | inactive: 45.4% |
| O=C(Nc1nc(-c2ccc(S(=O)(=O)N3CCCCCC3)cc2)cs1)c1cccs1 | inactive: 22% |
| O=C(CCCSc1nc(-c2ccco2)cc(C(F)(F)F)n1)NCc1cccs1 | inconclusive: -37.6% [inhibitor] |
| CCOCCCNC(=O)c1ccc2c(c1)N(Cc1ccccc1)C(=O)CS2=O (stereo not drawn) | inconclusive: -40% [inhibitor] |
